# Assay results from PMC5540273 (PLoS ONE, 2017).
# For some of these results: What follows is the remainder of the data, with few or none of the strong results. Only a part is listed here, and it is no random draw.
# Key:
# Conditions in all cases: concentration: 1 μM,replicates: in singlicate; n = 1
# CIT = test system: CIT
# CLK1 = test system: CLK1
# CLK2 = test system: CLK2
# CLK3 = test system: CLK3
# CLK4 = test system: CLK4
# CSF1R-autoinhibited = test system: CSF1R-autoinhibited
# CSF1R = test system: CSF1R
# CSK = test system: CSK
# CSNK1A1L = test system: CSNK1A1L
# CSNK1A1 = test system: CSNK1A1
# CSNK1D = test system: CSNK1D
# CSNK1E = test system: CSNK1E
# CSNK1G1 = test system: CSNK1G1
# CSNK1G2 = test system: CSNK1G2
# CSNK1G3 = test system: CSNK1G3
# CSNK2A1 = test system: CSNK2A1
# CSNK2A2 = test system: CSNK2A2
# CTK = test system: T1, CTK
# T1 construct: gene MATK
# DAPK1 = test system: DAPK1
# DAPK2 = test system: DAPK2
# 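Also: KINOMEscan kinase panel screen.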
SMILES,%Inh (CIT) [%],%Inh (CLK1) [%],%Inh (CLK2) [%],%Inh (CLK3) [%],%Inh (CLK4) [%],%Inh (CSF1R-autoinhibited) [%],%Inh (CSF1R) [%],%Inh (CSK) [%],%Inh (CSNK1A1L) [%],%Inh (CSNK1A1) [%],%Inh (CSNK1D) [%],%Inh (CSNK1E) [%],%Inh (CSNK1G1) [%],%Inh (CSNK1G2) [%],%Inh (CSNK1G3) [%],%Inh (CSNK2A1) [%],%Inh (CSNK2A2) [%],%Inh (CTK) [%],%Inh (DAPK1) [%],%Inh (DAPK2) [%]
Cc1ccc(C)c(Oc2nccc(-c3c(-c4ccc(F)cc4)ncn3C3CCNCC3)n2)c1.O=C(O)C(F)(F)F.O=C(O)C(F)(F)F.O=C(O)C(F)(F)F [SB-284852],93.7,4,0,1,0,0,0,0,37,86,95.2,97,97.6,21,29,0,1,0,0,0
CSc1ccc(NC2=C(c3cccc(Cl)c3)C(=O)NC2=O)cc1 [SB-341528],0,6,0,0,15,0,8,0,0,23,8,0,0,0,0,0,0,22,0,0
COc1cccc(C2=C(Nc3ccc(SC)cc3)C(=O)NC2=O)c1 [SB-331032],0,57,65,9,29,32,0,0,0,14,0,10,0,0,2,0,5,0,0,40
O=C1NC(=O)C(c2ccccc2)=C1Nc1ccc(Cl)c(C(=O)O)c1 [SB-390532],24,0,0,1,0,22,0,0,0,0,0,18,0,0,5,0,18,0,0,0
O=C1NC(=O)C(c2ccccc2Cl)=C1Nc1cccc(C(=O)O)c1 [SB-390526],6,40,88,0,22,10,0,0,10,2,36,19,29,12,12,10,7,0,0,7
O=C1NC(=O)c2c1c(-c1ccccc1)cc1[nH]c3ccc(O)cc3c21,51,0,5,0,0,0,29,13,45,53,51,50,2,62,40,79,81,8,22,2
O=C1NC(=O)C(c2ccc(Cl)cc2)=C1Nc1ccc(O)c(Cl)c1 [SB-405367],10,76,64,11,45,0,6,0,5,0,23,0,0,11,8,3,12,45,0,13
O=C1NC(=O)C(c2ccccc2)=C1Nc1cc(Cl)c(O)c(Cl)c1 [SB-390530],20,27,17,0,17,19,0,0,0,30,24,0,8,0,0,0,3,23,2,0
